Source: patent US11180452B2, “Methods and compositions for selectively inhibiting pathogenic microbes” (priority 2019, dated 2021)

System: Francisella tularensis strains
Test: microbe, parasite or virus in culture
Assay type: cell-based

**Q.** For `Brc1ccc2[nH]cc(Sc3ccccc3Br)c2c1` [Compound 174I, 5-bromo-3-((2-bromophenyl)thio)-1H-indole], which MIC (read-out: F. tularensis BSL-3 MIC, Strain 100) is on record?
**A.** 8 µg/mL (≈ 20.9 µM)

**Q.** What about the MIC (read-out: F. tularensis BSL-3 MIC, strain HN-63) of the same compound?
**A.** 4 µg/mL (≈ 10.4 µM)

**Q.** What about the MIC (read-out: F. tularensis BSL-3 MIC, strain LVS) of the same compound?
**A.** 2 µg/mL (≈ 5.22 µM)

**Q.** What about the MIC (read-out: F. tularensis BSL-3 MIC, strain MA00-2987) of the same compound?
**A.** 1.33 µg/mL (≈ 3.47 µM)

**Q.** What about the MIC (read-out: F. tularensis BSL-3 MIC, strain MO #1) of the same compound?
**A.** 2 µg/mL (≈ 5.22 µM)

**Q.** And the MIC (read-out: F. tularensis BSL-3 MIC, strain MO #2)?
**A.** 1 µg/mL (≈ 2.61 µM)

**Q.** What about the MIC (read-out: F. tularensis BSL-3 MIC, strain MO #3) of the same compound?
**A.** 2 µg/mL (≈ 5.22 µM)

**Q.** What about the MIC (read-out: F. tularensis BSL-3 MIC, strain OR-96) of the same compound?
**A.** 4 µg/mL (≈ 10.4 µM)

**Q.** What about the MIC (read-out: F. tularensis BSL-3 MIC, strain SCHU S4) of the same compound?
**A.** 8 µg/mL (≈ 20.9 µM)

**Q.** And the MIC (read-out: F. tularensis BSL-3 MIC, strain WY-96)?
**A.** 2 µg/mL (≈ 5.22 µM)

≈ marks a conversion by molar mass, not a printed value. Where two headings read alike, the source gives them in different places.
